Experimental data: PubChem BioAssay AID360 (National Center for Advancing Translational Sciences (NCATS), 2006)
Among all 48,000 compounds or so, about 550 (1.1%) were called active. Not shown: some 4% with an inconclusive outcome. Rule as the data show it: active = potency below about 15 µM; inconclusive = mostly about 16 µM to 33 µM; inactive = weaker than that. The list shows a part of the results.

molecular target: Lysosomal acid glucosylceramidase (Homo sapiens) (UniProt P04062); test: Glucocerebrosidase; conditions: purified enzyme, resorufin glucoside fluorescence (screen aimed at inhibitors), 20 min;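 also: the screen sought inhibitors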
Chain of UniProt P04062 (P04062 whole entry, looked up): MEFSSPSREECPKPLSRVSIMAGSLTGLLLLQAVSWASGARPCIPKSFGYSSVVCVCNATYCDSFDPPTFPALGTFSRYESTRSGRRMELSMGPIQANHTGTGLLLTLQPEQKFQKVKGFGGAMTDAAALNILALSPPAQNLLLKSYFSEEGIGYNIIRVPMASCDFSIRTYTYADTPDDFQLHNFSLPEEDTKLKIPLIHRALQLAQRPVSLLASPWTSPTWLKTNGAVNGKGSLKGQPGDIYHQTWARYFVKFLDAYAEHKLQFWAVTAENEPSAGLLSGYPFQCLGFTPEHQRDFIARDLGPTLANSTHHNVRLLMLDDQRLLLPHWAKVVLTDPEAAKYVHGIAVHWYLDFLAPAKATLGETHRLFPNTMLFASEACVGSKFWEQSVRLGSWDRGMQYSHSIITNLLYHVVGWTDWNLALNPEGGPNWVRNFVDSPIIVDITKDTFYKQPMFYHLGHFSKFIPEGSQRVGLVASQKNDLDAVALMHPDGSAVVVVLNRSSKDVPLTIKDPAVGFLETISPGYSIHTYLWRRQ
In short: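 Normal human glucocerebrosidase (0.2 nM final) was assayed with resorufin β-D-glucopyranoside (30 uM final) in 50mM citric acid/KH2PO4, 10mM sodium taurocholate, 0.01% tween-20, pH 5.9. Compounds were titrated; fluorescence (Ex 548, Em 600) read after 20 min at RT.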
Potency is read from the fitted curve at half-maximal effect.

Potency, inactive:
CCOc1ccc2nc(NC(=O)CSc3nnnn3C3CCCCC3)sc2c1 > 76.9 µM
CCn1c(SCC(=O)Nc2nc3ccccc3s2)nc2c(c1=O)SC(C)C2 (stereo unspecified) > 76.9 µM
Cc1cccc(-n2nnc(C(=O)NCc3ccc4c(c3)OCO4)c2N)c1 > 76.9 µM
COc1ccc(NC(=O)CSc2nc3c(c(=O)n2-c2ccccc2)SCC3)c(OC)c1 > 76.9 µM
COCCNC(=O)CSc1nc2ccccc2c(=O)n1CCCC(=O)NCc1ccccc1 > 76.9 µM
CCOc1nc(-c2ccccc2)ccc1-c1noc(-c2ccc(OC)c(OC)c2)n1 > 76.9 µM
Cc1cc(C)cc(NC(=O)c2cc(S(=O)(=O)NCc3ccco3)ccc2F)c1 > 76.9 µM
CN(C(=O)c1ccno1)c1nnc(-c2cccnc2)s1 > 76.9 µM
COc1ccc2c(=O)c3c(=O)n(Cc4ccco4)c(C4CCCCC4)nc3oc2c1 > 76.9 µM
COc1cc(C2C(C#N)=C(N)Oc3n[nH]c(C)c32)cc2c1OCO2 (stereo unspecified) > 76.9 µM
CCOc1ccc(C2/C(=C(\O)c3c(C)[nH]c(C(=O)OC)c3C)C(=O)C(=O)N2CCN(C)C)cc1 (stereo unspecified) > 76.9 µM
CC(C)(C)c1ccc(OCc2nc(-c3ccccn3)no2)c(Br)c1 > 76.9 µM
CCCCOC(=O)Cn1cnc2ccc(Br)cc2c1=O > 76.9 µM
CC1CCCCC1NS(=O)(=O)c1ccc(S(=O)(=O)N2CCCC2)cc1 (stereo unspecified) > 76.9 µM
COC(=O)c1[nH]c(C)c(/C(O)=C2\C(=O)C(=O)N(CCN(C)C)C2c2ccc(OC)cc2)c1C (stereo unspecified) > 76.9 µM
CCCCN(CC)CCNC(=O)Cn1cnc2sc(C)c(S(=O)(=O)N3CCOCC3)c2c1=O > 76.9 µM
Cc1c(-c2ccccc2)c(P(=O)(N2CCOCC2)N2CCOCC2)c2ccccn12 > 76.9 µM
O=C(c1ccc2c3c(cccc13)CC2)N1CCN(c2ncccn2)CC1 > 76.9 µM
O=C(O)CNC(=O)c1ccc2c(c1)OCCO2 > 76.9 µM
CC1(c2ccccc2Cl)NC(=O)N(CC(=O)NC(=O)NCc2ccco2)C1=O (stereo unspecified) > 76.9 µM
CCOC(=O)C1=C(C)N=C2SC(CC)C(=O)N2C1c1cccc(F)c1 (stereo unspecified) > 76.9 µM
Cc1ccc(C2(C)NC(=O)N(Cc3c(C)noc3C)C2=O)cc1 (stereo unspecified)
Cc1cc(C)n(-c2ccc(C(=O)OCC(=O)c3ccc(Br)s3)cc2)n1 > 76.9 µM
Cc1cc(C)n2nc(SCc3ncc(-c4ccccc4)o3)nc2n1 > 76.9 µM
CC(C)N1C[C@@]23C=C[C@@H](O2)C(C(=O)OCc2ccccc2)[C@H]3C1=O (stereo partly specified) > 76.9 µM
COC(=O)C1=C(C)n2nnnc2NC1c1ccc(Cl)cc1 (stereo unspecified) > 76.9 µM
Cc1cc(NC(=O)CSc2nnnn2C2CCCC2)no1 > 76.9 µM
Cc1cc(C)nc(Sc2ccc3nnc(C(F)(F)C(F)(F)C(F)(F)F)n3n2)n1 > 76.9 µM
COc1ccc(Cc2nnc(SCc3c(C)noc3C)n2C2CCCCC2)cc1OC > 76.9 µM
Cc1ccc(NC(=O)COC(=O)C2CC2C)c(S(=O)(=O)N2CCCCC2)c1 (stereo unspecified) > 76.9 µM
c1ccc(CSc2nnc(-c3cccs3)n2Cc2ccco2)cc1 > 76.9 µM
CC1Cc2ccccc2N1S(=O)(=O)c1cccc(C(=O)OCC(=O)NC2CCS(=O)(=O)C2)c1 (stereo unspecified)
O=C(O)c1cccc(N2C(=O)CCC2=O)c1 > 76.9 µM
COc1ccc(Nc2nc(N)nc(CN3CCOCC3)n2)cc1 > 76.9 µM
Cc1noc(NS(=O)(=O)c2ccc(NC(=O)CSc3n[nH]c(-c4ccccc4)n3)cc2)c1C > 76.9 µM
Cc1ccc(C)c(-n2c(SCC(N)=O)nnc2-c2ccccn2)c1 > 76.9 µM
Cc1ccc(Nc2cc(C)nc3nnnn23)cc1 > 76.9 µM
CCCCOC(=O)Nc1ccc(OC)cc1S(=O)(=O)N1CCOCC1 > 76.9 µM
CCOC(=O)c1[nH]c(C)c(C(=O)Nc2ccccc2F)c1C > 76.9 µM
CC1CCc2nc(NC(=O)CN3CCOCC3)sc2C1 (stereo unspecified) > 76.9 µM
Cn1c(=O)c2c(nc(N3CCCCCC3)n2CC(O)COc2ccccc2)n(C)c1=O (stereo unspecified) > 76.9 µM
COc1ccc(NC(=O)CSc2nc3ccccc3c(=O)n2CCNC(C)=O)c(OC)c1 > 76.9 µM
O=c1cc(COn2nnc3ccc(C(F)(F)F)cc32)nc2sccn12 > 76.9 µM
CCOC(=O)c1cccc(NC(=O)CCc2c(C)nc3ncnn3c2C)c1 > 76.9 µM
CN1CCNC(=O)C1CC(=O)O (stereo unspecified) > 76.9 µM
COc1ccc(CSc2nnc(C)n2N)cc1 > 76.9 µM
CC12C(=O)N(CCC(=O)O)C(=O)C1C1C=CC2C1 (stereo unspecified) > 76.9 µM
COc1cc(OC)c(C2C(C(=O)N3CCOCC3)=C(C)NC3=C2C(=O)CC(C)(C)C3)cc1OC (stereo unspecified) > 76.9 µM
CCOC(=O)N1CCN(S(=O)(=O)c2cc(Br)cc3c2N(C(=O)CC)CC3)CC1 > 76.9 µM
CCN(CC)CCCN(Cc1cc2cc3c(cc2[nH]c1=O)OCO3)C(=O)Nc1ccccc1OC > 76.9 µM
CC1(C)CC(=O)C(CC2=C(O)CC(C)(C)CC2=O)=C(O)C1 > 76.9 µM
COc1ccc(CN2CC(C(=O)NCCCN3CCN(Cc4ccccc4)CC3)CC2=O)cc1 (stereo unspecified) > 76.9 µM
O=C(c1cccc(S(=O)(=O)N2CCCCC2)c1)N1CCCCC1 > 76.9 µM
COc1ccc(CCNC(=O)CSc2nc(C)nc3c2oc2ccccc23)cc1OC > 76.9 µM
CC(=O)c1oc2ccccc2c1N > 76.9 µM
CCC(=O)c1ccc(OCC(O)CN(C)C2CCCCC2)cc1 (stereo unspecified) > 76.9 µM
